# Assay results: PubChem BioAssay AID504332 (National Center for Advancing Translational Sciences (NCATS), 2011)
# Hit rate of the full screen: of about 350,000 compounds, about 31,000 (8.9%) were called active. The shares of active, inactive and inconclusive entries below differ from those in the screen. Calls come from the whole dose curve; as a rule, active = well fitted inhibition curve with a large enough effect; inconclusive = small, poorly fitted or top-dose-only effect; inactive = no such curve, though single readings can be large or run the other way. Where the call is inconclusive, the potency comes from a doubtful curve fit.
# Target: Histone-lysine N-methyltransferase EHMT2 (Homo sapiens) (UniProt Q96KQ7)
# Assay: qHTS Assay for Inhibitors of Histone Lysine Methyltransferase G9a; note: nearly all actives have a fitted effect of over 75% in size
# Settings: G9a H3K9 monomethylation, AlphaScreen, 2 h; activity, negative = inhibition: at 59 µM (top of the series) unless noted
# Method in brief: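 AlphaScreen detection with an anti-monomethyl H3K9 antibody quantified product after a 2 h room-temperature reaction containing 500 nM biotinylated H3K9 peptide, 20 µM SAM and 20 nM enzyme, which had been preincubated 15 min with compound.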
# % is set by controls: 0 for no effect and ±100 for the full control effect; potency is the fitted concentration of half-maximal effect; tags give direction and shape of the fitted curve.
# Chain of UniProt Q96KQ7 (Q96KQ7 whole entry, looked up): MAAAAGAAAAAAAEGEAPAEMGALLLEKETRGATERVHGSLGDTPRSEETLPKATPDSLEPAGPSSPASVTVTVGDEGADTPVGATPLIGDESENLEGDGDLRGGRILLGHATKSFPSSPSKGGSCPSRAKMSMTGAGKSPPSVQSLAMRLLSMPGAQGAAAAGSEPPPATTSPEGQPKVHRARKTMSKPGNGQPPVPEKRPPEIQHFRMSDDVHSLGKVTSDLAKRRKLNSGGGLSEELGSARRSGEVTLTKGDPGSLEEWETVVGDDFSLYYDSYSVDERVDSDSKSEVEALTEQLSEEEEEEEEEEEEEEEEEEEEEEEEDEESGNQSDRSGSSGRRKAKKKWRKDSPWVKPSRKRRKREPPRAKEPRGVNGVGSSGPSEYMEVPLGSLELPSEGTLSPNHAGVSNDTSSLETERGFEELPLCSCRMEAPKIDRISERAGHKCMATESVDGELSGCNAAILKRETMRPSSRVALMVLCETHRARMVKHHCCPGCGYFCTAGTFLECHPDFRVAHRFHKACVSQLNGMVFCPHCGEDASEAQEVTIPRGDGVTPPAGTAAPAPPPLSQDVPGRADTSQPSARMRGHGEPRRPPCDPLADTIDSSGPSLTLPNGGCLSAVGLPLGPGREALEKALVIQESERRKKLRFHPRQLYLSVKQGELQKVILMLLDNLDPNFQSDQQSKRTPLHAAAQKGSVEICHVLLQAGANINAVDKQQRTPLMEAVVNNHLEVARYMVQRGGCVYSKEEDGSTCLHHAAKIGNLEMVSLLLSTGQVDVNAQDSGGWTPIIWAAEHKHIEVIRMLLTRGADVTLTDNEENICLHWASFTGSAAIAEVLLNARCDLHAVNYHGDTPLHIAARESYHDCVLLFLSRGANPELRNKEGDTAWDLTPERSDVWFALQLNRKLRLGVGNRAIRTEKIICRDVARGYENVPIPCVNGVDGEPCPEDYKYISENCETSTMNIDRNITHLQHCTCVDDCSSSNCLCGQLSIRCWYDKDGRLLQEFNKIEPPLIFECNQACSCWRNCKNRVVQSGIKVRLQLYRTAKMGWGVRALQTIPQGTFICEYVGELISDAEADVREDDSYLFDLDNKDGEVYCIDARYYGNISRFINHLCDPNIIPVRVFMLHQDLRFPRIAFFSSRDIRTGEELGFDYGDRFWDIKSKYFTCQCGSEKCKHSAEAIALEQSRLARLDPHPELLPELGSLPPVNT
SMILES,Potency,"activity, negative = inhibition"
O=C(Nc1ccc(Br)cc1)C1C2C=CC3(O2)C1C(=O)N(CCN1CCCCC1)C3C(=O)NC1CCCCC1 (centres undefined),active: 50.1 µM,
COc1ccc(NC2=C(C(C)=O)C(c3ccc(OC)c(OC)c3)C(C(C)=O)C(C)(O)C2)cc1 (centres undefined),"inconclusive: 28.2 µM [inhibitor, single point]",
Cc1ccc(N2CC(C(=O)NCc3ccco3)CC2=O)cc1Cl (centres undefined),"inconclusive: 50.1 µM [inhibitor, single point]",
CCOc1cc(/C=C2\CN(CC)C/C(=C\c3ccc(O)c(OCC)c3)C2=O)ccc1O,active: 28.2 µM,
COc1ccc(C(=O)NC(=S)Nc2ccccc2N2CCOCC2)cc1[N+](=O)[O-],"inconclusive: 28.2 µM [inhibitor, single point]",
COc1ccc2c(c1)-c1nc(NC(=O)c3cc(OC)c(OC)c(OC)c3)sc1CC2,"inconclusive: 22.4 µM [inhibitor, single point]",
CCN(CC)C(=O)CSc1nc2sc3c(c2c(=O)n1-c1ccc(C)cc1)CC(C)(C)SC3,"inconclusive: 44.7 µM [inhibitor, partial curve, poor fit]",
O=C(COc1ccc(Cl)cc1)Nc1ccc(N2CCN(C(=O)c3ccco3)CC2)cc1,"inconclusive: 79.4 µM [inhibitor, single point]",
Cc1cc(C)cc(NC(=O)C[n+]2ccccc2)c1,"inconclusive: 89.1 µM [inhibitor, single point]",
OC(c1ccccc1)(c1ccc(F)cc1)C(c1ccccc1)N1CCOCC1 (centres undefined),"inconclusive: 89.1 µM [inhibitor, single point]",
Nc1cc(N2CCCCC2)c([N+](=O)[O-])cc1Cl,"inconclusive: 31.6 µM [inhibitor, single point]",
O=C(Nc1ccc2nc(-c3ccccc3)[nH]c2c1)c1cccs1,"inconclusive: 31.6 µM [inhibitor, single point]",
CCOC(=O)CNC(=O)c1ccc(OCC(F)(F)F)cc1,inactive,
CC(C)(C)C(=O)Nc1nnc(SCC(=O)Nc2nccs2)s1,inactive,
COc1ccc(/C(O)=C2/C(=O)C(=O)N(CCN3CCOCC3)C2c2cccnc2)cc1OC (centres undefined),"inconclusive: 28.2 µM [inhibitor, single point]",
O=C(OCC(=O)N1CCCc2ccccc21)c1cc(S(=O)(=O)N2CCOCC2)ccc1O,,inactive: -0.189% [at 2.33 µM]
N#CC1=C(N)N2C(=C(C#N)C1c1ccccc1)Sc1ccccc12 (centres undefined),"inconclusive: 2 µM [inhibitor, partial curve, poor fit]",
CNc1sc(C(=O)c2ccccc2F)c(N)c1-c1nc2ccccc2s1,"inconclusive: 3.55 µM [inhibitor, single point]",
CC(=O)c1cc(C#N)c(SCC(=O)O)nc1C,"inconclusive: 89.1 µM [inhibitor, single point]",
Cc1ccc(NS(=O)(=O)c2ccc3c(c2)NC(=O)C(C)C(=O)N3)c(Br)c1 (centres undefined),"inconclusive: 89.1 µM [inhibitor, single point]",
COc1ccc2cc(C(c3nnnn3Cc3ccc(F)cc3)N3CCCCCC3)c(=O)[nH]c2c1 (centres undefined),"inconclusive: 0.891 µM [inhibitor, partial curve, poor fit]",
Cc1cc(C)n(-c2ccc([N+](=O)[O-])cc2-c2nn[nH]n2)n1,"inconclusive: 44.7 µM [inhibitor, partial curve, poor fit]",
CCOC(=O)C1CCN(C(=O)CN(c2ccc(OC)cc2)S(=O)(=O)c2c(C)noc2C)CC1,"inconclusive: 89.1 µM [inhibitor, single point]",

SMILES,Potency,"activity, negative = inhibition"
COc1ccc(CNC(=O)COC(=O)c2cnccn2)cc1,"inconclusive: 50.1 µM [inhibitor, partial curve, poor fit]",
CN1/C(=c2/s/c(=C3/C(=O)N(c4ccccc4)NC3=Nc3ccccc3)n(C)c2=O)C(C)(C)c2ccccc21,active: 10 µM,
CSc1cccc(NC(=O)C2CCCN(S(=O)(=O)c3cnc[nH]3)C2)c1 (centres undefined),"inconclusive: 89.1 µM [inhibitor, single point]",
COc1cc(NS(=O)(=O)c2ccc(C)cc2C)cc(OC)c1OC,active: 79.4 µM,
CN(C)c1cccc(/C=C(\C#N)c2ccccc2)c1,active: 44.7 µM,
CN(C)/N=C/c1c(O)ccc2ccccc12,active: 10 µM,
Clc1ccc(Cc2noc(CN3CCN(c4ccccc4)CC3)n2)c(Cl)c1,,inactive: 7.23% [at 12.7 µM]
Cc1ccc(NC(=O)Cn2c(-c3nonc3N)nc3ccccc32)c(Br)c1,inactive,
C=CCn1c(SCC(=O)c2ccc(NS(=O)(=O)c3ccccc3)cc2)nnc1-c1cccs1,"inconclusive: 3.55 µM [inhibitor, single point]",
Cc1ccc(-c2nc(CS(=O)CC(=O)NC3CCCC3)c(C)o2)cc1 (centres undefined),active: 70.8 µM,
CC(C)(C)C(=O)Nc1ccc(C(=O)Nc2cc(NC(=O)c3ccc(NC(=O)C(C)(C)C)cc3)cc(C(=O)O)c2)cc1,inactive,
Cc1cc(C)c(C)c(S(=O)(=O)N2CCC(C(=O)Nc3ccncc3)CC2)c1C,inactive,
O=C(COc1ccccc1)Nc1ccccc1Oc1ccccc1,inactive,
Cc1ccn2cc(-c3cccc([N+](=O)[O-])c3)nc2c1,inactive,
C=CCn1c(CSc2nc3ccccc3s2)nnc1SCC(=O)NCc1ccco1,active: 44.7 µM,
Cc1ccc(/C=C2/SC(=O)NC2=S)o1,active: 17.8 µM,
Cc1ccc2nc(N(CCN(C)C)C(=O)c3ccc4ccccc4c3)sc2c1,active: 39.8 µM,
Cc1ccc(-n2ncc(C(=O)NCCCN3CCc4ccccc4C3)c2C2CCN(C(=O)OC(C)(C)C)CC2)c(C)c1,"inconclusive: 17.8 µM [inhibitor, partial curve, poor fit]",
Cc1ccc(C(=O)c2c3ccccc3[n+]([O-])n2[C@@H](C)C(N)=O)cc1,,inactive: -8.85% [at 2.33 µM]
Cc1ccc2c(C)cc(=S)[nH]c2c1,active: 50.1 µM,
CC1(C)CC(N2CCCCC2)=CC(=[N+]2CCCCC2)C1,"inconclusive: 28.2 µM [inhibitor, partial curve, poor fit]",
COc1cccc(CNC(=O)Cn2nc(N3CCN(c4ccccc4OC)CC3)ccc2=O)c1,inactive,
CCC(NC(=O)Nc1nccs1)(C(F)(F)F)C(F)(F)F,"inconclusive: 89.1 µM [inhibitor, single point]",

SMILES,Potency,"activity, negative = inhibition"
Cc1nn(C)c(C)c1S(=O)(=O)N(CC(=O)N1CCc2ccccc2C1)c1ccc(C(C)C)cc1,inactive,
Cc1ccccc1NC(=O)c1ccc(Nc2c([N+](=O)[O-])cc([N+](=O)[O-])c3ccccc23)cc1,active: 7.94 µM,
COc1cc(C2NC(=O)CCC2[N+](=O)[O-])c(OC)cc1Br (centres undefined),inactive,
O=C(c1ccncc1)N1CCN(C(=O)c2cccs2)CC1,,inactive: -1.78% [at 12.7 µM]
CCOC(=O)CC(NC(=O)c1cccc2c1C(=O)N(Cc1cccnc1)C2)c1ccc(OCC)c(OC)c1 (centres undefined),"inconclusive: 44.7 µM [inhibitor, partial curve]",
CCN(Cc1ccccc1)C(=O)CN1C(=O)NC2(CC(C)CC(C)(C)C2)C1=O (centres undefined),"inconclusive: 35.5 µM [inhibitor, partial curve]",
COc1ccc2c(c1)CCc1c(C(=O)Nc3ccc(C#N)cc3)noc1-2,inactive,
O=C(NC(=S)Nc1ccc2[nH]c(=O)[nH]c2c1)c1cncc(Br)c1,"inconclusive: 11.2 µM [inhibitor, partial curve]",
O=c1cc(CSc2ccc(Cl)cc2)[nH]c2[nH]n(-c3ccccc3)c(=O)c12,active: 39.8 µM,
CCOc1ccccc1OCCCC(=O)Nc1ccc(Cl)c(S(=O)(=O)N2CCOCC2)c1,"inconclusive: 11.2 µM [inhibitor, partial curve, poor fit]",
CC(C)C(=O)N1CCc2cc(-c3csc(N)n3)ccc21,"inconclusive: 3.16 µM [inhibitor, partial curve, poor fit]",
S=C(NCCc1ccccc1)NCCN1CCOCC1,inactive,
CCn1c2ccccc2c2cc(CN3CCN(S(C)(=O)=O)CC3)ccc21,inactive,
O=C(Nc1ccc(N2CCOCC2)cc1)c1ccc2nc(-c3ccco3)c(-c3ccco3)nc2c1,,inconclusive: -84.2% [inhibitor]
CC/C(=N/Nc1cccc(C)c1)c1cnnc(SC)n1,active: 7.08 µM,
O=C(Nc1ccc(F)cc1)N(Cc1ccco1)Cc1cc2cc3c(cc2[nH]c1=O)OCO3,"inconclusive: 39.8 µM [inhibitor, partial curve, poor fit]",
COc1ccc2nc(NC(=O)CN3CCN(C)CC3)sc2c1,"inconclusive: 39.8 µM [inhibitor, single point]",
CCOC(=O)C(=O)/C(C#N)=C/Nc1ccccc1,"inconclusive: 89.1 µM [inhibitor, single point]",
CCN(CC)C(=O)c1sc(NC(=O)c2cccc([N+](=O)[O-])c2)c(C#N)c1C,"inconclusive: 3.16 µM [inhibitor, single point]",
COc1ccc(Cl)cc1NC(=O)CN(C)C(=O)c1ccc(-n2nc(C)cc2C)cc1,"inconclusive: 3.55 µM [inhibitor, single point]",
CC(=O)NC(c1ccc(F)cc1)c1cccnc1 (centres undefined),"inconclusive: 35.5 µM [inhibitor, single point]",
COc1ccc(N2CCN(C(=O)COC(=O)c3ccc(OC(F)F)cc3)CC2)cc1,inactive,
Cc1ccc(S(=O)(=O)NCc2ccc(C(=O)NCCCN3CCN(C)CC3)cc2)cc1,"inconclusive: 79.4 µM [inhibitor, partial curve, poor fit]",
